The results in this text go back to article PMC4242493.

The list shows a part of the results. The list includes weakly bound sequences.

The experiment concerns the target MaxL homodimer (UniProt P61244). Put plainly: universal protein-binding microarray (PBM). Particulars: PBS-based mixture, 10 nM His-tagged protein dimer, 2% milk, 200 ng/uL BSA, 50 ng/uL salmon testes DNA, 0.02% TX-100; detection with Alexa 488 anti-His …; high values mean tight binding; most listed sequences are background and not binding sites; double strand, one strand shown.
UniProt P61244, sequence (P61244 whole entry): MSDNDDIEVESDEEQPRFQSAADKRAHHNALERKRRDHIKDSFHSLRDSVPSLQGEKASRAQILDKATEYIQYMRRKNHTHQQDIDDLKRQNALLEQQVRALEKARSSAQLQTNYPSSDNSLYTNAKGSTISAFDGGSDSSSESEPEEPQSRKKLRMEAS
Turning to ACTCTGTG, the binding signal (normalized occupancy) worked out at 0.0707.

With CGACCCAA, the binding signal (normalized occupancy) was found to be 0.0727.

Turning to CCATAATC, the binding signal (normalized occupancy) stood at 0.0823.

With CGAGTGGA, the binding signal (normalized occupancy) was 0.0775.

With ACACCGCT, the binding signal (normalized occupancy) was determined as 0.0738.

With CTCGACGC, the binding signal (normalized occupancy) amounted to 0.0751.

In the case of AATACGAT, the binding signal (normalized occupancy) stood at 0.0801.

Turning to CCTAACGA, the binding signal (normalized occupancy) came out at 0.075.

Consider GAGAGACC, for which the binding signal (normalized occupancy) worked out at 0.0677.

In the case of CAAGTAAG, the binding signal (normalized occupancy) turned out to be 0.0749.

In the case of AAATGGGG, the binding signal (normalized occupancy) turned out to be 0.0777.

Consider CTGTCTTA, for which the binding signal (normalized occupancy) stood at 0.0726.

ATCTTGAG: the binding signal (normalized occupancy) came out at 0.0774.

For TCCTCAAA, the binding signal (normalized occupancy) came to 0.0768.

For AGGTGACC, the binding signal (normalized occupancy) came out at 0.0766.

With ATCGAACA, the binding signal (normalized occupancy) came to 0.0764.

Take CCACCCGG: the binding signal (normalized occupancy) was found to be 0.0772.

For GCACCAGA, the binding signal (normalized occupancy) is 0.0705.

As for TATGATCA, the binding signal (normalized occupancy) came to 0.0795.

On to CGTTGGAA, for which the binding signal (normalized occupancy) worked out at 0.0835.

In the case of CTACCACA, the binding signal (normalized occupancy) is 0.0867.

For the sequence ATGTAAAG, the binding signal (normalized occupancy) came out at 0.0767.

As to ACCACTAC, the binding signal (normalized occupancy) was found to be 0.077.

With GCCTAAAA, the binding signal (normalized occupancy) came to 0.0696.

As to CAACTTCC, the binding signal (normalized occupancy) worked out at 0.0736.

Take GGGTCGTA: the binding signal (normalized occupancy) came out at 0.0757.

Regarding CGGTGGAG, the binding signal (normalized occupancy) was found to be 0.0737.

For the sequence AAAATTAG, the binding signal (normalized occupancy) turned out to be 0.0735.

As to GATCTAAC, the binding signal (normalized occupancy) came out at 0.0787.

For CACTTGAC, the binding signal (normalized occupancy) was 0.077.

In the case of CCATCGCC, the binding signal (normalized occupancy) came out at 0.0714.

Take CGCTTGAG: the binding signal (normalized occupancy) was 0.0665.

AACTTTGC: the binding signal (normalized occupancy) turned out to be 0.0667.

AAAAGATG: the binding signal (normalized occupancy) was determined as 0.0789.

On to ATGTGATA, for which the binding signal (normalized occupancy) was 0.0999.

As for CGTGTACA, the binding signal (normalized occupancy) came out at 0.0823.

In the case of ACGTCCAC, the binding signal (normalized occupancy) was 0.0784.

For the sequence ATTGTCAG, the binding signal (normalized occupancy) was found to be 0.0763.

Regarding ACATTGTG, the binding signal (normalized occupancy) was 0.0901.

Regarding AGTGTGTG, the binding signal (normalized occupancy) is 0.0828.

Regarding AATATCCC, the binding signal (normalized occupancy) is 0.0803.

Turning to CCCGCGAG, the binding signal (normalized occupancy) worked out at 0.0726.

With ACTGCCAC, the binding signal (normalized occupancy) is 0.0753.

As to AAATTGTA, the binding signal (normalized occupancy) was 0.0768.

As to GGCCGGTA, the binding signal (normalized occupancy) was 0.0757.

Turning to AACATCTC, the binding signal (normalized occupancy) was found to be 0.0748.

As to GGTTATCA, the binding signal (normalized occupancy) amounted to 0.0822.

For CAGTCCAC, the binding signal (normalized occupancy) stood at 0.078.

In the case of CATAGACG, the binding signal (normalized occupancy) came out at 0.0804.

Regarding ACCTGCCG, the binding signal (normalized occupancy) worked out at 0.0699.

As to ACATAAAT, the binding signal (normalized occupancy) worked out at 0.0889.

For GTTTCTCA, the binding signal (normalized occupancy) was 0.0753.

For CTGTCGCA, the binding signal (normalized occupancy) is 0.0742.

As to AAGGACAG, the binding signal (normalized occupancy) was determined as 0.0739.

As for ATAGTCCG, the binding signal (normalized occupancy) was found to be 0.0727.

For GATCGGCA, the binding signal (normalized occupancy) came out at 0.0763.

As to GAACGAAC, the binding signal (normalized occupancy) was found to be 0.0739.

As for CGGCGGAC, the binding signal (normalized occupancy) is 0.0709.

As to CGTCCACG, the binding signal (normalized occupancy) amounted to 0.0822.

As for AGCATCCT, the binding signal (normalized occupancy) was 0.0767.

With ATCCTCCA, the binding signal (normalized occupancy) is 0.0797.

With CTCAATGA, the binding signal (normalized occupancy) is 0.075.

In the case of CAAATAAA, the binding signal (normalized occupancy) amounted to 0.0762.

Turning to CCCAAACA, the binding signal (normalized occupancy) was determined as 0.0761.

With GTAGACTA, the binding signal (normalized occupancy) was found to be 0.073.

Regarding AGGCGTAA, the binding signal (normalized occupancy) came out at 0.0741.

Take AAAGGCCT: the binding signal (normalized occupancy) amounted to 0.0723.

As for CGGCCTGC, the binding signal (normalized occupancy) worked out at 0.069.

In the case of ATCAGCGG, the binding signal (normalized occupancy) came to 0.0723.

With CAAGGCGG, the binding signal (normalized occupancy) was determined as 0.0729.

CAGTTTGC: the binding signal (normalized occupancy) worked out at 0.0742.

Regarding ATAACTCG, the binding signal (normalized occupancy) was 0.0786.

In the case of CATCGAAG, the binding signal (normalized occupancy) was found to be 0.0787.

CATACGGA: the binding signal (normalized occupancy) was found to be 0.078.

For the sequence GACTGCGC, the binding signal (normalized occupancy) came to 0.069.

CTAGTGGC: the binding signal (normalized occupancy) was 0.0765.

With CTACTGAC, the binding signal (normalized occupancy) is 0.0715.

Regarding ACATGCGA, the binding signal (normalized occupancy) came out at 0.0989.

Take AACAGACG: the binding signal (normalized occupancy) is 0.075.

For the sequence CGAAGAAA, the binding signal (normalized occupancy) came out at 0.0773.

Regarding AACGTCGA, the binding signal (normalized occupancy) came to 0.0741.

Take ACGATCTA: the binding signal (normalized occupancy) was 0.0767.

CAAGCAGG: the binding signal (normalized occupancy) was found to be 0.0708.

As for ACCCCCAT, the binding signal (normalized occupancy) is 0.0853.

As to AACCGACA, the binding signal (normalized occupancy) stood at 0.0771.

Consider AGATGCTA, for which the binding signal (normalized occupancy) was 0.0746.

For ATCGCTCG, the binding signal (normalized occupancy) is 0.0725.

On to ACCTAACG, for which the binding signal (normalized occupancy) was found to be 0.0729.

Take TCGGAGCA: the binding signal (normalized occupancy) amounted to 0.0695.

For the sequence CTAGGAAG, the binding signal (normalized occupancy) was found to be 0.0688.

Take ACTATACG: the binding signal (normalized occupancy) turned out to be 0.0815.

GTCCAGGA: the binding signal (normalized occupancy) worked out at 0.0695.

Turning to GCATGTGA, the binding signal (normalized occupancy) came to 0.157.

With CCAATTCC, the binding signal (normalized occupancy) is 0.0767.

Regarding ACTCGCCG, the binding signal (normalized occupancy) was 0.0704.

Consider GAATATCA, for which the binding signal (normalized occupancy) was 0.0792.

In the case of CGACTCGA, the binding signal (normalized occupancy) was 0.0696.

Take ACACAGGG: the binding signal (normalized occupancy) was found to be 0.0803.

On to ATTTGGCG, for which the binding signal (normalized occupancy) came to 0.0755.

With AGCGTTTG, the binding signal (normalized occupancy) is 0.0699.

On to GCAATTCC, for which the binding signal (normalized occupancy) worked out at 0.0732.

For the sequence CCAGCTCG, the binding signal (normalized occupancy) came to 0.0653.

CGCTCCCG: the binding signal (normalized occupancy) turned out to be 0.0639.

Turning to CGATATAC, the binding signal (normalized occupancy) came out at 0.08.

As to GTGTCAGA, the binding signal (normalized occupancy) was determined as 0.0842.

For AGAAAGGG, the binding signal (normalized occupancy) came to 0.0755.

Regarding GCACCTTA, the binding signal (normalized occupancy) was determined as 0.0768.

For the sequence ATTTTGAA, the binding signal (normalized occupancy) came out at 0.0713.

Take GGAGTGCC: the binding signal (normalized occupancy) was 0.07.

On to CAAAAGAC, for which the binding signal (normalized occupancy) stood at 0.0705.

For AGATCGCC, the binding signal (normalized occupancy) was found to be 0.0749.

As to CTTGAGGC, the binding signal (normalized occupancy) stood at 0.069.

Take AGGAGATC: the binding signal (normalized occupancy) came to 0.0735.

With AATGCTTG, the binding signal (normalized occupancy) stood at 0.0731.

On to ACGAACTC, for which the binding signal (normalized occupancy) was determined as 0.0737.

On to ATGGAATC, for which the binding signal (normalized occupancy) is 0.0846.

As to AATTCAAC, the binding signal (normalized occupancy) worked out at 0.0747.

As for CAGAGCGG, the binding signal (normalized occupancy) worked out at 0.0655.

Consider GAGCAGAC, for which the binding signal (normalized occupancy) turned out to be 0.0757.

Consider GCAATGTA, for which the binding signal (normalized occupancy) worked out at 0.0794.

Consider CTGAGTGA, for which the binding signal (normalized occupancy) came to 0.069.

In the case of ACCGATAC, the binding signal (normalized occupancy) was 0.075.

Regarding CGGATGAG, the binding signal (normalized occupancy) came out at 0.0718.

As for ACTCTCTA, the binding signal (normalized occupancy) was 0.075.

CTCTCAGC: the binding signal (normalized occupancy) was determined as 0.0719.

GGCGTACC: the binding signal (normalized occupancy) is 0.0666.

Take CGGGCTGC: the binding signal (normalized occupancy) was found to be 0.0667.

In the case of CGACTGCC, the binding signal (normalized occupancy) was 0.0712.

Consider GAACGTTC, for which the binding signal (normalized occupancy) amounted to 0.0746.

With AAAGACGA, the binding signal (normalized occupancy) worked out at 0.076.

For ACGAATAA, the binding signal (normalized occupancy) came out at 0.081.

As to AACGTCCA, the binding signal (normalized occupancy) amounted to 0.0778.

Regarding GGGCGGAC, the binding signal (normalized occupancy) worked out at 0.0692.

Regarding CTTGCTTC, the binding signal (normalized occupancy) amounted to 0.0724.

As to CGCGTTCA, the binding signal (normalized occupancy) is 0.0709.

Consider AACGCTCT, for which the binding signal (normalized occupancy) worked out at 0.0765.

In the case of GACAGTGC, the binding signal (normalized occupancy) came out at 0.0787.

As for CGTTTAAA, the binding signal (normalized occupancy) was determined as 0.0762.

Turning to GTAGCACA, the binding signal (normalized occupancy) was 0.0812.

Consider AAAGCCAG, for which the binding signal (normalized occupancy) was 0.0727.

On to AAACCGTC, for which the binding signal (normalized occupancy) was found to be 0.0684.

Regarding GGCCTCCA, the binding signal (normalized occupancy) was found to be 0.0698.

Consider TGACATCA, for which the binding signal (normalized occupancy) is 0.0834.

GGATAGGA: the binding signal (normalized occupancy) was determined as 0.0793.

For the sequence AGCCTACA, the binding signal (normalized occupancy) worked out at 0.0751.

CCCTAATC: the binding signal (normalized occupancy) worked out at 0.0793.

Consider CAATCCAC, for which the binding signal (normalized occupancy) is 0.08.

As to ACTGTGGC, the binding signal (normalized occupancy) was 0.0717.

With CAGACATG, the binding signal (normalized occupancy) was 0.0872.

On to CAGTTGAC, for which the binding signal (normalized occupancy) turned out to be 0.0741.

As to ATGCCACC, the binding signal (normalized occupancy) came out at 0.0841.

On to ACCAAGGC, for which the binding signal (normalized occupancy) stood at 0.0726.

In the case of CCCTTTCG, the binding signal (normalized occupancy) was determined as 0.0705.

For ATGGCTTA, the binding signal (normalized occupancy) came out at 0.0763.

Regarding ACCTATTG, the binding signal (normalized occupancy) was found to be 0.0786.

GAACTAGC: the binding signal (normalized occupancy) was 0.0682.

Take GTTGATCA: the binding signal (normalized occupancy) worked out at 0.0828.

GCCTGCCA: the binding signal (normalized occupancy) turned out to be 0.072.

On to CCAGTTCA, for which the binding signal (normalized occupancy) came to 0.0721.

ACAATTTA: the binding signal (normalized occupancy) was determined as 0.0774.

Regarding CATCTTCG, the binding signal (normalized occupancy) amounted to 0.0743.

For the sequence GTTTGATA, the binding signal (normalized occupancy) amounted to 0.0778.

With TCAGAGGA, the binding signal (normalized occupancy) came out at 0.0732.

Regarding GAAAGACA, the binding signal (normalized occupancy) is 0.0725.

For GCTCCTCC, the binding signal (normalized occupancy) was found to be 0.0704.

AGTAGTAT: the binding signal (normalized occupancy) is 0.0771.

On to AACAGCGA, for which the binding signal (normalized occupancy) came out at 0.0748.

Take CCCCGAGC: the binding signal (normalized occupancy) was 0.076.

Turning to CGCAGTCA, the binding signal (normalized occupancy) was found to be 0.0756.

In the case of TCCCGAAA, the binding signal (normalized occupancy) was 0.0756.

With AGGGTCCA, the binding signal (normalized occupancy) is 0.0731.

Regarding CATCGATC, the binding signal (normalized occupancy) amounted to 0.0786.
